Laboratory results taken from the supplement of paper PMC10369915.
Some of the results follow. Cut-off read from the data, not from the text of the source: active = 3.2 or more and inactive = the rest. Most of these values are background signal.
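Note: displayed peptides selected on beads carrying the immobilized SH2 domain, with library peptides lacking any tyrosine serving as negative controls.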

Each binder was assayed against SHP2 C-SH2 domain E139D (assay: enrichment score (SH2-bound / input frequency) (ratio); bacterial display of known human phosphotyrosine sites (pTyr-Var adds point mutants) read by sequencing; higher = stronger binding; tyrosines were phosphorylated by kinases first). Details: peptide library: Human pTyr.
For FLLAFEHYINARKHH [THRB_HUMAN_406_YA], the enrichment score was active: 3.54.
For ASAPIGRYTMALQIF [TGM3_HUMAN_111], the enrichment score was inactive: 1.68.
In the case of NVLAKALYDNVAESP [BCAR1_HUMAN_12], the enrichment score is reported as inactive: 0.532.
IRRRSSNYRAAATEP [TNNI3_HUMAN_26_YA] was tested, and the enrichment score was inactive: 1.01.
For TAVNTTLYEKFTAAG [TIE2_HUMAN_1108_YA], the enrichment score was inactive: 0.684.
NRGGYGNYRSNWQNY [THRAP3_HUMAN_107] was tested, and the enrichment score was inactive: 2.87.
ESMSQAPYCVRNVRF [THIM_HUMAN_127] was tested, and the enrichment score was inactive: 1.33.
In the case of NSPGNAFYSNVLYRP [TMIG2_HUMAN_192], the enrichment score is reported as inactive: 0.94.
With MLEERKTYVNTTLYE [TIE2_HUMAN_1102] the enrichment score was inactive: 0.857.
TYVNTTLYEKFTYAG [TIE2_HUMAN_1108] was tested, and the enrichment score was inactive: 1.77.
With EEITEEQYYMMRRYE [THEMIS_HUMAN_540] the enrichment score was inactive: 1.55.
For AAQDLVSYLEGSTAS [TIRAP_HUMAN_106], the enrichment score was inactive: 0.767.
DRPQSSIYDPFAGMK [BCAP_HUMAN_594] was tested, and the enrichment score was inactive: 0.838.
For EITEEQAYMMRRAES [THEMIS_HUMAN_541_YA], the enrichment score was inactive: 0.647.
For FLLAFEHYINYRKHH [THRB_HUMAN_406], the enrichment score was active: 3.28.
In the case of EIEVKKEYLSSLQPR [THOC5_HUMAN_225], the enrichment score is reported as inactive: 0.769.
In the case of EQFEYAAYIIHAYKD [TLR3_HUMAN_759], the enrichment score is reported as inactive: 2.62.
In the case of SGLSRAAYPPELRFM [TIRAP_HUMAN_187], the enrichment score is reported as inactive: 0.803.

Each binder was assayed against SHP2 C-SH2 domain wild-type in the same assay as above. Details: peptide library: Human pTyr.
FLLAFEHYINARKHH [THRB_HUMAN_406_YA] was tested, and the enrichment score was inactive: 2.82.
In the case of ASAPIGRYTMALQIF [TGM3_HUMAN_111], the enrichment score is reported as inactive: 1.63.
For NVLAKALYDNVAESP [BCAR1_HUMAN_12], the enrichment score was inactive: 0.489.
For IRRRSSNYRAAATEP [TNNI3_HUMAN_26_YA], the enrichment score was inactive: 0.557.
For TAVNTTLYEKFTAAG [TIE2_HUMAN_1108_YA], the enrichment score was inactive: 0.832.
For NRGGYGNYRSNWQNY [THRAP3_HUMAN_107], the enrichment score was inactive: 2.8.
With ESMSQAPYCVRNVRF [THIM_HUMAN_127] the enrichment score was inactive: 0.995.
NSPGNAFYSNVLYRP [TMIG2_HUMAN_192] was tested, and the enrichment score was inactive: 1.21.
In the case of MLEERKTYVNTTLYE [TIE2_HUMAN_1102], the enrichment score is reported as inactive: 0.596.
In the case of TYVNTTLYEKFTYAG [TIE2_HUMAN_1108], the enrichment score is reported as inactive: 1.71.
In the case of EEITEEQYYMMRRYE [THEMIS_HUMAN_540], the enrichment score is reported as inactive: 1.41.
AAQDLVSYLEGSTAS [TIRAP_HUMAN_106] was tested, and the enrichment score was inactive: 0.691.
For DRPQSSIYDPFAGMK [BCAP_HUMAN_594], the enrichment score was inactive: 0.592.
EITEEQAYMMRRAES [THEMIS_HUMAN_541_YA] was tested, and the enrichment score was inactive: 0.589.
In the case of FLLAFEHYINYRKHH [THRB_HUMAN_406], the enrichment score is reported as active: 3.77.
With EIEVKKEYLSSLQPR [THOC5_HUMAN_225] the enrichment score was inactive: 0.592.
With EQFEYAAYIIHAYKD [TLR3_HUMAN_759] the enrichment score was inactive: 3.11.
For SGLSRAAYPPELRFM [TIRAP_HUMAN_187], the enrichment score was inactive: 0.638.

The binders below were run against SHP2 N-SH2 domain L43F in the same assay as above. Details: peptide library: Human pTyr.
With FLLAFEHYINARKHH [THRB_HUMAN_406_YA] the enrichment score was active: 3.61.
For ASAPIGRYTMALQIF [TGM3_HUMAN_111], the enrichment score was inactive: 1.77.
With NVLAKALYDNVAESP [BCAR1_HUMAN_12] the enrichment score was inactive: 0.631.
For IRRRSSNYRAAATEP [TNNI3_HUMAN_26_YA], the enrichment score was inactive: 0.879.
For TAVNTTLYEKFTAAG [TIE2_HUMAN_1108_YA], the enrichment score was inactive: 0.404.
For NRGGYGNYRSNWQNY [THRAP3_HUMAN_107], the enrichment score was inactive: 2.2.
With ESMSQAPYCVRNVRF [THIM_HUMAN_127] the enrichment score was inactive: 0.914.
NSPGNAFYSNVLYRP [TMIG2_HUMAN_192] was tested, and the enrichment score was inactive: 0.797.
With MLEERKTYVNTTLYE [TIE2_HUMAN_1102] the enrichment score was inactive: 0.76.
For TYVNTTLYEKFTYAG [TIE2_HUMAN_1108], the enrichment score was inactive: 1.83.
EEITEEQYYMMRRYE [THEMIS_HUMAN_540] was tested, and the enrichment score was inactive: 1.38.
In the case of AAQDLVSYLEGSTAS [TIRAP_HUMAN_106], the enrichment score is reported as inactive: 0.646.
DRPQSSIYDPFAGMK [BCAP_HUMAN_594] was tested, and the enrichment score was inactive: 0.74.
With EITEEQAYMMRRAES [THEMIS_HUMAN_541_YA] the enrichment score was inactive: 0.609.
FLLAFEHYINYRKHH [THRB_HUMAN_406] was tested, and the enrichment score was active: 4.05.
In the case of EIEVKKEYLSSLQPR [THOC5_HUMAN_225], the enrichment score is reported as inactive: 0.651.
EQFEYAAYIIHAYKD [TLR3_HUMAN_759] was tested, and the enrichment score was inactive: 2.84.
With SGLSRAAYPPELRFM [TIRAP_HUMAN_187] the enrichment score was inactive: 0.76.

The binders below were run against SHP2 N-SH2 domain T42A in the same assay as above. Details: peptide library: Human pTyr.
FLLAFEHYINARKHH [THRB_HUMAN_406_YA] was tested, and the enrichment score was inactive: 2.73.
In the case of ASAPIGRYTMALQIF [TGM3_HUMAN_111], the enrichment score is reported as inactive: 1.49.
With NVLAKALYDNVAESP [BCAR1_HUMAN_12] the enrichment score was inactive: 0.648.
For IRRRSSNYRAAATEP [TNNI3_HUMAN_26_YA], the enrichment score was inactive: 0.609.
TAVNTTLYEKFTAAG [TIE2_HUMAN_1108_YA] was tested, and the enrichment score was inactive: 0.528.
For NRGGYGNYRSNWQNY [THRAP3_HUMAN_107], the enrichment score was inactive: 2.51.
For ESMSQAPYCVRNVRF [THIM_HUMAN_127], the enrichment score was inactive: 1.16.
With NSPGNAFYSNVLYRP [TMIG2_HUMAN_192] the enrichment score was inactive: 0.922.
In the case of MLEERKTYVNTTLYE [TIE2_HUMAN_1102], the enrichment score is reported as inactive: 0.613.
TYVNTTLYEKFTYAG [TIE2_HUMAN_1108] was tested, and the enrichment score was inactive: 1.99.
In the case of EEITEEQYYMMRRYE [THEMIS_HUMAN_540], the enrichment score is reported as inactive: 0.961.
For AAQDLVSYLEGSTAS [TIRAP_HUMAN_106], the enrichment score was inactive: 0.643.
For DRPQSSIYDPFAGMK [BCAP_HUMAN_594], the enrichment score was inactive: 0.637.
With EITEEQAYMMRRAES [THEMIS_HUMAN_541_YA] the enrichment score was inactive: 0.523.
With FLLAFEHYINYRKHH [THRB_HUMAN_406] the enrichment score was active: 3.31.
EIEVKKEYLSSLQPR [THOC5_HUMAN_225] was tested, and the enrichment score was inactive: 0.683.
For EQFEYAAYIIHAYKD [TLR3_HUMAN_759], the enrichment score was inactive: 2.61.
In the case of SGLSRAAYPPELRFM [TIRAP_HUMAN_187], the enrichment score is reported as inactive: 0.647.

These binders were tested against SHP2 N-SH2 domain T52S in the same assay as above. Details: peptide library: Human pTyr.
For FLLAFEHYINARKHH [THRB_HUMAN_406_YA], the enrichment score was inactive: 2.74.
For ASAPIGRYTMALQIF [TGM3_HUMAN_111], the enrichment score was inactive: 1.72.
NVLAKALYDNVAESP [BCAR1_HUMAN_12] was tested, and the enrichment score was inactive: 0.645.
For IRRRSSNYRAAATEP [TNNI3_HUMAN_26_YA], the enrichment score was inactive: 0.571.
For TAVNTTLYEKFTAAG [TIE2_HUMAN_1108_YA], the enrichment score was inactive: 0.604.
NRGGYGNYRSNWQNY [THRAP3_HUMAN_107] was tested, and the enrichment score was inactive: 2.98.
With ESMSQAPYCVRNVRF [THIM_HUMAN_127] the enrichment score was inactive: 1.14.
For NSPGNAFYSNVLYRP [TMIG2_HUMAN_192], the enrichment score was inactive: 0.74.
For MLEERKTYVNTTLYE [TIE2_HUMAN_1102], the enrichment score was inactive: 0.953.
In the case of TYVNTTLYEKFTYAG [TIE2_HUMAN_1108], the enrichment score is reported as inactive: 1.72.
With EEITEEQYYMMRRYE [THEMIS_HUMAN_540] the enrichment score was inactive: 1.39.
AAQDLVSYLEGSTAS [TIRAP_HUMAN_106] was tested, and the enrichment score was inactive: 0.693.
For DRPQSSIYDPFAGMK [BCAP_HUMAN_594], the enrichment score was inactive: 0.763.
For EITEEQAYMMRRAES [THEMIS_HUMAN_541_YA], the enrichment score was inactive: 0.641.
For FLLAFEHYINYRKHH [THRB_HUMAN_406], the enrichment score was active: 3.82.
EIEVKKEYLSSLQPR [THOC5_HUMAN_225] was tested, and the enrichment score was inactive: 0.771.
For EQFEYAAYIIHAYKD [TLR3_HUMAN_759], the enrichment score was inactive: 2.87.
In the case of SGLSRAAYPPELRFM [TIRAP_HUMAN_187], the enrichment score is reported as inactive: 1.05.

What follows are binders tested against SHP2 N-SH2 domain wild-type in the same assay as above. Details: peptide library: Human pTyr.
In the case of FLLAFEHYINARKHH [THRB_HUMAN_406_YA], the enrichment score is reported as active: 3.51.
With ASAPIGRYTMALQIF [TGM3_HUMAN_111] the enrichment score was inactive: 2.06.
For NVLAKALYDNVAESP [BCAR1_HUMAN_12], the enrichment score was inactive: 0.657.
In the case of IRRRSSNYRAAATEP [TNNI3_HUMAN_26_YA], the enrichment score is reported as inactive: 0.529.
For TAVNTTLYEKFTAAG [TIE2_HUMAN_1108_YA], the enrichment score was inactive: 0.969.
In the case of NRGGYGNYRSNWQNY [THRAP3_HUMAN_107], the enrichment score is reported as active: 3.37.
ESMSQAPYCVRNVRF [THIM_HUMAN_127] was tested, and the enrichment score was inactive: 1.15.
NSPGNAFYSNVLYRP [TMIG2_HUMAN_192] was tested, and the enrichment score was inactive: 0.855.
For MLEERKTYVNTTLYE [TIE2_HUMAN_1102], the enrichment score was inactive: 0.886.
With TYVNTTLYEKFTYAG [TIE2_HUMAN_1108] the enrichment score was inactive: 2.43.
With EEITEEQYYMMRRYE [THEMIS_HUMAN_540] the enrichment score was inactive: 1.77.
For AAQDLVSYLEGSTAS [TIRAP_HUMAN_106], the enrichment score was inactive: 0.701.
With DRPQSSIYDPFAGMK [BCAP_HUMAN_594] the enrichment score was inactive: 0.708.
In the case of EITEEQAYMMRRAES [THEMIS_HUMAN_541_YA], the enrichment score is reported as inactive: 0.688.
For FLLAFEHYINYRKHH [THRB_HUMAN_406], the enrichment score was active: 4.41.
EIEVKKEYLSSLQPR [THOC5_HUMAN_225] was tested, and the enrichment score was inactive: 0.892.
For EQFEYAAYIIHAYKD [TLR3_HUMAN_759], the enrichment score was active: 4.14.
In the case of SGLSRAAYPPELRFM [TIRAP_HUMAN_187], the enrichment score is reported as inactive: 0.782.
